Laboratory results from PubChem BioAssay AID1347417 (National Center for Advancing Translational Sciences (NCATS), 2020).
Among all 120,000 compounds or so, about 5,300 (4.4%) were called active. Inconclusive results, whose numbers are uncertain, are shown with a selection of clear calls. The call rests on the fitted dose curve; in most records, active means well fitted inhibition curve with a large enough effect; inconclusive means small, poorly fitted or top-dose-only effect; inactive means no such curve, though single readings can be large or run the other way. Potencies of inconclusive entries are doubtful fits and often do not repeat.

Assay: qHTS Primary assay for Inhibitors of Plasmodium falciparum Dd2 growth in vitro; further: nearly all actives have a fitted effect of over 65% in size
Settings: P. falciparum Dd2 growth, SYBR Green, 72 h; series mostly up to 28.9 µM
Summary of the method: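 Infected erythrocytes (Dd2, 0.3% parasitemia, 2.5% hematocrit final) are added to compound in RPMI-1640/Albumax II medium, grown 72 h at 37C in low oxygen, then lysed with saponin/Triton-X containing SYBR Green and read by fluorescence.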
Potency means the concentration at half of the fitted maximal effect; tags describe the fitted curve by direction and shape.

Compound | Potency
COc1ccc(OCCCn2c(C)nc3cc(C)c(C)cc32)cc1 | inconclusive: 11.2 µM [inhibitor, single point]
O=C(Nc1cccc(-c2nnc3n2CCCC3)c1)c1cc(F)cc(F)c1 | inconclusive: 7.94 µM [inhibitor, partial curve, poor fit]
CCNC(=O)Nc1ccc([C@H]2OCC(=O)N(Cc3ccc(F)cc3)[C@@H]2CO)cc1 | inactive
CCNC(=O)NC[C@@H]1C=C(C)[C@H](Cc2nnc(-c3ccccc3F)o2)C[C@H]1C(C)C | inconclusive: 1 µM [inhibitor, full curve, poor fit]
COc1ccc(CN2CC(C)(NC(C)=O)C2)c2ccccc12 | inconclusive: 17.8 µM [inhibitor, single point]
COc1ccc(C2=Nc3ccccc3N(CC(=O)Nc3cccc(C(C)=O)c3)C(=O)C2)cc1 | inconclusive: 11.2 µM [inhibitor, partial curve]
CCOC(=O)c1ccc(NC(=O)C(CC)Sc2nncn3c2cc2oc(C)cc23)cc1 (stereo unspecified) | active: 10 µM
Cc1ccc(C(=O)N2CCC3(C2)NC(=O)c2ccccc2O3)cc1 (stereo unspecified) | inactive
CC(C)c1ccc(NC(=O)c2cc(S(=O)(=O)NCCC3=CCCCC3)ccc2F)cc1 | inconclusive: 10 µM [inhibitor, single point]
COc1ccc(-c2nc3sc(CCNC(=O)c4ccc(C(C)(C)C)cc4)c(C)n3n2)cc1 | active: 1.12 µM
O=C1CC(c2noc(Cc3ccc(F)cc3)n2)CN1c1ccc(F)cc1 (stereo unspecified) | inactive
CN1C[C@@H](N)C[C@H]1c1nc(-c2ccc3c(c2)OCO3)no1 | inconclusive: 17.8 µM [inhibitor, partial curve, poor fit]
COCCn1c(=O)c2c(n1Cc1ccccc1)CN(C(=O)c1ccc(Oc3ccccc3)cc1)CC2 | inconclusive: 8.91 µM [inhibitor, single point]
c1cncc(-c2nnc3n2CCN(Cc2cccc4ccccc24)C3)c1 | inconclusive: 7.94 µM [inhibitor, partial curve, poor fit]
CCC(c1cccs1)N1C(=O)[C@H]2CN(S(=O)(=O)c3ccc(C)cc3C)C[C@H]2C1=O (stereo partly specified) | inconclusive: 17.8 µM [inhibitor, single point]
CC(C)(C)c1nc(C(=O)N2CCN(c3ncccn3)CC2)n2ccccc12 | inactive
COC(=O)c1ccc(OCC2c3cc(OC)c(OC)cc3CCN2C(=O)Cc2ccc(OC)c(OC)c2)cc1 (stereo unspecified) | active: 11.2 µM
O=C(c1cc(-c2ccccc2O)n[nH]1)N1CCC2(CCNCC2)CC1 | inactive
CCN(Cc1c(O)cccc1OC)CC1CCN(CCc2ccccc2C)CC1 | active: 15.8 µM
COc1ccc(CCNC(=O)Cn2nc(-c3ccc(Cl)cc3)ccc2=O)cc1OC | inconclusive: 7.94 µM [inhibitor, single point]
COc1ccc(NC(=O)c2cc3c(s2)CN(C2CCCC2)C3)c(C)c1 | inconclusive: 11.2 µM [inhibitor, single point]

Compound | Potency
O=C(OCc1ccccc1)N1CCOCC12CCN(Cc1c[nH]c3ccccc13)CC2 | inconclusive: 7.08 µM [inhibitor, partial curve, poor fit]
Cc1nc(-c2c3n(c(=O)n(Cc4ccc(F)c(F)c4)c2=O)CCCC3)no1 | inconclusive: 1.41 µM [inhibitor, partial curve, poor fit]
CCOC(=O)C1=C(CNCc2ccc(Cl)cc2)NC(=O)NC1c1ccccc1 (stereo unspecified) | inactive
Cc1nonc1CC(=O)N1CCc2onc(-c3ccc(F)c(F)c3)c2C1 | inactive
Cc1cc(F)ccc1NC(=O)c1ccc2c(c1)n(Cc1cccc(F)c1)c(=O)c1ccnn12 | inconclusive: 6.31 µM [inhibitor, partial curve, poor fit]
COc1cc(NC(=O)Cn2cc(S(=O)(=O)N3CCC(C)CC3)c3ccccc3c2=O)cc(OC)c1OC | inconclusive: 14.1 µM [inhibitor, single point]
Cc1c(-c2ccccc2)[nH]c2c(CNC(=O)CCc3nncn3C)cc(Cl)cc12 | inactive
CCCC(C(=O)Nc1cc(C)c(Cl)cc1OC)N1Cc2ccccc2C1=O (stereo unspecified) | inconclusive: 10 µM [inhibitor, single point]
Cc1cccc(CN2CCCC(C(=O)Nc3cccc(-n4cccn4)c3)C2)n1 (stereo unspecified) | inconclusive: 14.1 µM [inhibitor, single point]
Cc1nn(C)c(C)c1S(=O)(=O)NCCc1ncc(C)n1Cc1ccc(F)cc1 | inconclusive: 2.24 µM [inhibitor, partial curve, poor fit]
COC(=O)CCC(=O)N1CCOC(Cc2cccc(C(F)(F)F)c2)C1 (stereo unspecified) | inactive
CN(C)c1ccc(CNC(=O)C2CCN(C(=O)c3ccc(-n4ccc5ccccc54)s3)CC2)cc1 | inconclusive: 17.8 µM [inhibitor, single point]
CC(C)C[C@@H]1N[C@H](C(=O)N2CCOCC2)Cc2cn(Cc3ccncc3)c3cccc1c23 | active: 10 µM
COc1ccc(S(=O)(=O)NC[C@H]2Cn3c(-c4ccc(Cl)cc4)cnc3CO2)cc1 | inconclusive: 12.6 µM [inhibitor, single point]
CC1CCN(c2nc3c(S(=O)(=O)c4cccc(Cl)c4)nnn3c3ccsc23)CC1 | active: 12.6 µM
COc1cc([N+](=O)[O-])ccc1NC(=O)N1CCC2(CC1)Nc1cc(F)ccc1-n1cccc12 | inconclusive: 10 µM [inhibitor, single point]
COCCNCc1nc2c(n1Cc1ccccc1)C(=O)N(Cc1ccccc1C#N)CCN2 | inconclusive: 2 µM [inhibitor, single point]
CC(C)(C)OC(=O)N1CCC(c2c(C(=O)N3CCN(c4ncccn4)CC3)cnn2-c2ccc(F)cc2)CC1 | inconclusive: 10 µM [inhibitor, single point]
Cc1ccccc1-c1ccc2n(c1=O)C[C@H]1C[C@@H]2CN(C(=O)NC2CCCCC2)C1 | inconclusive: 10 µM [inhibitor, single point]
COc1ccc(C(=O)N2Cc3[nH]cnc3C[C@H]2c2nc(-c3ccc(OC(F)(F)F)cc3)no2)cc1 | inactive
